In PubChem BioAssay AID1745853 (National Center for Advancing Translational Sciences (NCATS), 2022) one finds activity change, negative = inhibition data, which are given here for 29 compounds.

The structures appear in SMILES notation. Some of the results follow. Shown are side measurements of this screen, not its main read-out; they come without a call.

What all share (assay): Primary Screen for Target Class Profiling of Small Molecule Inhibitors of Methyltransferases
The target in test [1] is Glycine N-methyltransferase (Homo sapiens) (UniProt Q14749). Particulars: purified enzyme, MTase-Glo SAH luminescence; measured here: GNMT inhibition; at 40 µM; stronger effect = lower value. In short, it runs like this:
(§1)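 Each enzyme was assayed with SAM and its substrate. SAH formation detected by MTase-Glo luminescence; single-point 40 uM screen[…].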

Test [2] addresses Guanidinoacetate N-methyltransferase (Homo sapiens) (UniProt Q14353). The note with it: purified enzyme, MTase-Glo SAH luminescence; measured here: GAMT inhibition; at 40 µM; stronger effect = lower value. In short, it runs like this:
as §1

Test [3] addresses Histamine N-methyltransferase (Homo sapiens) (UniProt P50135). The note with it: purified enzyme, MTase-Glo SAH luminescence; measured here: HNMT inhibition; at 40 µM; stronger effect = lower value. In short, it runs like this: as §1
In test [4] the target is Nicotinamide N-methyltransferase (Homo sapiens) (UniProt P40261). The note with it: purified enzyme, MTase-Glo SAH luminescence; measured here: NNMT inhibition; at 40 µM; stronger effect = lower value. In short, it runs like this:
as §1

Test [5] has as its target Phenylethanolamine N-methyltransferase (Homo sapiens) (UniProt P11086). The note with it: purified enzyme, MTase-Glo SAH luminescence; measured here: PNMT inhibition; at 40 µM; stronger effect = lower value. Summed up:
as §1
% is set by controls: 0 for no effect and ±100 for the full control effect.

For `Cc1ccc(Cn2c(=O)c3ccccc3n3c(CCC(=O)NCCN4CCOCC4)nnc23)cc1`, the activity change, negative = inhibition in test [1] was -11%; in test [2] it was 0.989%; in test [3], -7.94%; in test [4], 4.5%; in test [5], -8.17%.

In the case of `CCN1CCN(c2cc(-c3ccc(F)cc3)c3c(n2)CCCCCC3)CC1`, the activity change, negative = inhibition in test [1] was 2.71%; in test [2], 10.4%; in test [3] it was 12.5%; in test [4], -18.6%; in test [5] it was 4.5%.

With `CC1=CC(=O)C2C(C)(C)CCC[C@]2(C)[C@H]1CC[C@H](C)CC(=O)O` (stereo partly drawn), the activity change, negative = inhibition is -1.25% in test [1]; -1.61% in test [2]; 9.87% in test [3]; -17.3% in test [4]; 5.28% in test [5].

For the compound `Cc1ccc(-c2cc(N3CCCN(C(=O)c4ccccc4F)CC3)n[nH]2)cc1C`, the activity change, negative = inhibition in test [1] is -7.31%; in test [2] it was -5.23%; in test [3], -5.11%; in test [4] it was -12.6%; in test [5] it was -3.98%.

As for `COc1ccccc1CNC(=O)Cn1ccc2cc(S(=O)(=O)N3CCCC3)ccc21`, the activity change, negative = inhibition was -3.31% in test [1]; -3.17% in test [2]; -6.13% in test [3]; -8.05% in test [4]; -5.22% in test [5].

For the compound `c1ccc(Cn2c(-c3ccc(OCC(C4CCNCC4)n4c(-c5ccccc5)nc5ccccc54)cc3)nc3ccccc32)cc1` (stereo not drawn), the activity change, negative = inhibition was -26.6% in test [1]; -0.499% in test [2]; -52.1% in test [3]; -82% in test [4]; -3.88% in test [5].

Regarding `COc1ccccc1CN1C(=O)c2cc3ccccc3n2CC1(C)C(=O)NC1CCCCC1` (stereo not drawn), the activity change, negative = inhibition in test [1] is -0.048%; in test [2], 3.83%; in test [3], 7.7%; in test [4], 4.69%; in test [5], 1.79%.

In the case of `C=C1CCC2C(C)(C)C(O)CCC2(C)C1CCC(C)CCO` (stereo not drawn), the activity change, negative = inhibition in test [1] is -15%; in test [2], -7.93%; in test [3], 0.29%; in test [4], -24.5%; in test [5], -20.7%.

Turning to `Cc1ccccc1-c1cnc2[nH]cc(CC(=O)N3CCOCC3)c2c1`, the activity change, negative = inhibition in test [1] is -14.7%; in test [2], -8.59%; in test [3], -6.3%; in test [4] it was -17.5%; in test [5], -17.3%.

For the compound `CCOC(=O)CCN(C(=O)c1ccc2c(c1)nc(CNc1ccc(C(=N)N)cc1)n2C)c1ccccn1`, the activity change, negative = inhibition in test [1] was -3.95%; in test [2], -0.937%; in test [3] it was -91.2%; in test [4], -25%; in test [5], -11.7%.

For the compound `O=C(O)c1ccc(N2C(=O)/C(=C/c3ccc(-c4ccc([N+](=O)[O-])cc4)o3)C=C2c2ccccc2)cc1`, the activity change, negative = inhibition is -40.2% in test [1]; -24.2% in test [2]; -14.1% in test [3]; -29.6% in test [4]; -4.76% in test [5].

Turning to `CC1(C(=O)NC2CCCCC2)Cn2c(cc3sccc32)C(=O)N1CC1CCCO1` (stereo not drawn), the activity change, negative = inhibition is -2.31% in test [1]; 4.5% in test [2]; 1.96% in test [3]; -1.88% in test [4]; 2.62% in test [5].

For the compound `CNC(=O)N1CCC(C2CCN(C(=O)c3cnn(C)c3)C2)CC1` (stereo not drawn), the activity change, negative = inhibition is -1.83% in test [1]; -0.717% in test [2]; 1.55% in test [3]; -7.07% in test [4]; -13.2% in test [5].

For `O=C(C[C@@H]1C[C@H]2O[C@H](CNC3CCOCC3)[C@@H](O)[C@H]2O1)N1CCC(F)(F)C1`, the activity change, negative = inhibition in test [1] is -3.77%; in test [2], -13.1%; in test [3], -2.15%; in test [4], -17.3%; in test [5], -15.5%.

`COc1ccc2cc1Nc1ccc(cc1)C[C@H](NCc1ccc(C)o1)C(=O)N(C)[C@H](C(=O)NCCC(C)C)C2`: the activity change, negative = inhibition in test [1] is -5.4%; in test [2], -8.12%; in test [3], -6.57%; in test [4], -8.21%; in test [5] it was -14.8%.

Consider `CC(=O)O[C@H]1Cc2ccccc2N(C(N)=O)c2ccccc21`, for which the activity change, negative = inhibition is -0.192% in test [1]; 0.789% in test [2]; 0.421% in test [3]; -6.46% in test [4]; 2.1% in test [5].

As to `Cc1nnnn1CC(=O)N1CCCC(c2ccccc2)(c2ccccc2)C1`, the activity change, negative = inhibition in test [1] was -7.07%; in test [2] it was -7.88%; in test [3], -2.93%; in test [4] it was -16%; in test [5], -7.25%.

On to `C=C1CC[C@@H]2[C@](C)(CO)[C@H](O)CC[C@@]2(C)[C@@H]1CC(O)C1=CCOC1=O` (stereo partly drawn), for which the activity change, negative = inhibition in test [1] is 4.57%; in test [2], 7.54%; in test [3], 6.32%; in test [4], -6.11%; in test [5], 6.8%.

With `CC#CC(=O)N1CCCC(C(=O)Nc2ccc(-c3cccc(OC)c3)cc2)C1` (stereo not drawn), the activity change, negative = inhibition is -8.62% in test [1]; -9.79% in test [2]; -2.95% in test [3]; -13.3% in test [4]; -7.63% in test [5].

Turning to `CCOC(=O)c1cccc(NC(=O)Cn2c(=O)oc3cc(S(=O)(=O)N4CCCC4)ccc32)c1`, the activity change, negative = inhibition in test [1] was 0.901%; in test [2] it was 4.29%; in test [3] it was -0.923%; in test [4], -2.49%; in test [5] it was -24%.

Turning to `COc1ccc(C#Cc2ccc(C(=O)N3CCC[C@@H](O)C3)c(F)c2)cc1`, the activity change, negative = inhibition in test [1] was -7.35%; in test [2], -21.4%; in test [3] it was -0.117%; in test [4], -33.4%; in test [5] it was -0.092%.

With `CCCOc1ccc(CN2C(=O)c3cc4ccccc4n3CC2(C)C(=O)NCc2ccccc2)cc1` (stereo not drawn), the activity change, negative = inhibition was 0.872% in test [1]; 0% in test [2]; 1.22% in test [3]; -1.91% in test [4]; -4.5% in test [5].

For the compound `O=C(Nc1ccc(C(F)(F)F)cn1)N1CCN(c2ncccc2C(F)(F)F)CC1`, the activity change, negative = inhibition in test [1] is -5.96%; in test [2], -1.95%; in test [3], 4.31%; in test [4] it was -15%; in test [5] it was -54.6%.

`CC(C)=CCC[C@](C)(OC1OC(COC2OCC(O)C(O)C2O)C(O)C(O)C1O)[C@H]1CC[C@]2(C)[C@@H]1[C@H](O)C[C@@H]1[C@@]3(C)CC[C@H](OC4OC(CO)C(O)C(O)C4OC4OC(CO)C(O)C(O)C4O)C(C)(C)[C@@H]3CC[C@]12C` (stereo partly drawn): the activity change, negative = inhibition in test [2] amounted to 27.2%; in test [4], 10.3%; in test [5] it was 11.9%.

Take `Cc1ccc(-c2n[nH]n3c2nc(=O)c2ccc(C(=O)NCc4ccc5c(c4)OCO5)cc23)cc1`: the activity change, negative = inhibition in test [1] is -16.6%; in test [2], -5.02%; in test [3], -2.15%; in test [4], -10.5%; in test [5] it was -2.92%.

Turning to `COC(=O)c1ncn2c1C(=O)N(Cc1ccco1)C(C)(C(=O)NC1CCCC1)C2` (stereo not drawn), the activity change, negative = inhibition is 3.12% in test [1]; 0% in test [2]; -1.25% in test [3]; 3.66% in test [4]; 0.088% in test [5].

Take `Cc1ccc(C(=O)N(CCCN)C(c2nc3cc(Cl)ccc3c(=O)n2Cc2ccccc2)C(C)C)cc1` (stereo not drawn): the activity change, negative = inhibition in test [1] is 5.35%; in test [2], 5.81%; in test [3], 5.37%; in test [4] it was -16.8%; in test [5] it was 0.873%.

On to `CCCN1CCC(N2C[C@H]3OC(=O)N(CCc4cccc(Cl)c4)[C@H]3C2)CC1`, for which the activity change, negative = inhibition in test [1] was -10.5%; in test [2] it was -18.1%; in test [3], -24.9%; in test [4] it was -19.8%; in test [5], -18.8%.

For `CC1(C)CC[C@@]2(C(=O)O[C@@H]3O[C@H](CO)[C@@H](O)[C@H](O)[C@H]3O)C(C1)C1=CCC3[C@@]4(C)CC[C@@H](O[C@@H]5O[C@H](C(=O)O)[C@@H](O[C@@H]6OC[C@@H](O)[C@H](O)[C@H]6O)[C@H](O[C@@H]6OC[C@](O)(CO)[C@H]6O)[C@H]5O)C(C)(C)C4CC[C@@]3(C)[C@]1(C)C[C@H]2O` (stereo partly drawn), the activity change, negative = inhibition was 0% in test [1]; 1.37% in test [2]; -0.905% in test [3]; -9.97% in test [4]; 2.6% in test [5].
